Measured values from PubChem BioAssay AID360 (National Center for Advancing Translational Sciences (NCATS), 2006).
Screen size: about 48,000 compounds; about 550 (1.1%) were called active. Inconclusive results (about 4%) are left out. No stated cut-off is given here; in the data, active means potency below about 15 µM; inconclusive means mostly about 16 µM to 33 µM; inactive means weaker than that. Some of the results follow.

target: Lysosomal acid glucosylceramidase (Homo sapiens) (UniProt P04062); test: Glucocerebrosidase; settings: purified enzyme, resorufin glucoside fluorescence (screen aimed at inhibitors), 20 min;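 further: the screen sought inhibitors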
Chain of UniProt P04062 (P04062 whole entry, looked up): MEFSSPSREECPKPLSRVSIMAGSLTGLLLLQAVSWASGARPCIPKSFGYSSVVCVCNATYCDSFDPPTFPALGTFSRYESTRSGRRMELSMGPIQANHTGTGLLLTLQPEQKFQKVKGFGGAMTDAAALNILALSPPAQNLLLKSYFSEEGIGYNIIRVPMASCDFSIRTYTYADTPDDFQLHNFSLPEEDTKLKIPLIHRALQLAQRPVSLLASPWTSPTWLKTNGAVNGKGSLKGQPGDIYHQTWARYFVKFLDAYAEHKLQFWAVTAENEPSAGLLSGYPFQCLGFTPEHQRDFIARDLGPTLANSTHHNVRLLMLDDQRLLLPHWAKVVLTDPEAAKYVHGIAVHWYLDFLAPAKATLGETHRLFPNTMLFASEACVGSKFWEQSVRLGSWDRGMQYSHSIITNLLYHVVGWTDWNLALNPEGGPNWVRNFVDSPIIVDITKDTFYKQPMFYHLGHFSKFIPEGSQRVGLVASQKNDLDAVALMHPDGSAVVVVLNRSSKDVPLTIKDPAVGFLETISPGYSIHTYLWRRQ
How it was run: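 Compounds titrated against 0.2 nM normal enzyme, 30 uM resorufin beta-D-glucopyranoside substrate, citrate/phosphate buffer with taurocholate and tween-20, pH 5.9. Reaction ran 20 min at room temperature; fluorescence (Ex 548/Em 600) gave AC50.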
Potency means the concentration at half of the fitted maximal effect.

Potency, inactive:
COc1ccc(-c2nc(C#N)c(NC(C)c3ccccc3)o2)cc1OC (stereo unspecified) > 76.9 µM
Cc1ccc(CCNC(=O)c2nnn(-c3cccc(C)c3)c2N)cc1 > 76.9 µM
CSc1nnc(-c2ccc(S(=O)(=O)N3CCCC3)cc2)n1C > 76.9 µM
COc1ccc(CCC(C(O)C(F)(F)F)S(=O)c2ccccc2)cc1 (stereo unspecified) > 76.9 µM
Cc1cc(C)cc(NC(=O)CSc2nnc(-c3ccc(S(=O)(=O)N4CCCC4)cc3)o2)c1 > 76.9 µM
COc1ccc(C(=O)O)cc1S(=O)(=O)NCCCN1CCCC1=O > 76.9 µM
Cc1ccc(SCC(=O)NCc2ccco2)cc1 > 76.9 µM
O=C(c1cccnc1Nc1ccc2c(c1)CCC2)N1CCOCC1 > 76.9 µM
Cc1noc(C)c1COC(=O)C1CC(O)CN1S(=O)(=O)c1ccc(Cl)cc1 (stereo unspecified) > 76.9 µM
O=C(O)COc1cccc2nsnc12 > 76.9 µM
CSc1ccc(Cl)c(C(=O)NCC(C)C)c1 > 76.9 µM
Cc1ccc(-n2c(SCC(=O)OC(C)C)nnc2-c2ccncc2)cc1 > 76.9 µM
Cc1ccc(CNc2nc3ccccc3s2)s1
COc1ccc(S(=O)(=O)Nc2cccc(Cl)c2)cc1OC > 76.9 µM
N#C/C(C(=O)c1ccccc1)=C1/SC=C(N)N1c1ccccc1 > 76.9 µM
Cc1oc2ccccc2c1-c1cn2c(n1)SCC2 > 76.9 µM
O=S(=O)(NCCOc1cccc2cccnc12)c1ccc(F)cc1 > 76.9 µM
CCn1c(CNC(=O)Cc2ccc(OC)cc2)nnc1SCC(=O)Nc1nccs1 > 76.9 µM
Cc1cc(NC(=O)CCC(=O)N(CC(=O)NC2CCCC2)c2ccc3c(c2)OCCO3)no1 > 76.9 µM
CCOc1ccc(S(=O)(=O)Nc2nc3ccccc3nc2N2CCN(C)CC2)cc1 > 76.9 µM
CC(C)NC(=O)c1cc(=O)n(C)c(=O)n1C > 76.9 µM
COc1ccc(-n2ncc3c(NCc4cccs4)ncnc32)cc1 > 76.9 µM
Brc1cccc(-c2n[nH]c(-c3ccccc3)n2)c1 > 76.9 µM
CCOc1cc(S(=O)(=O)NC2CC(C)(C)NC(C)(C)C2)ccc1F > 76.9 µM
CN(CC(=O)Nc1ccc(F)c(F)c1)S(=O)(=O)c1cccc2nsnc12 > 76.9 µM
CC(=O)N(CC1CCCO1)C1(C(=O)NC2CCCC2)CCCCC1 (stereo unspecified) > 76.9 µM
